Among all 310,000 compounds or so, about 14,000 (4.5%) showed an effect of 50% or more. The effect is printed as a negative number. Some of the results follow.
target: human ether-à-go-go-related gene (hERG) potassium channel (human, UniProt Q12809); experiment: primary screen, population patch clamp on CHO cells stably expressing hERG
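Note: peak tail current of the secondary pulse compared with the same well before compound.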

human ether-à-go-go-related gene (hERG) potassium channel, sequence (Q12809 whole entry, looked up): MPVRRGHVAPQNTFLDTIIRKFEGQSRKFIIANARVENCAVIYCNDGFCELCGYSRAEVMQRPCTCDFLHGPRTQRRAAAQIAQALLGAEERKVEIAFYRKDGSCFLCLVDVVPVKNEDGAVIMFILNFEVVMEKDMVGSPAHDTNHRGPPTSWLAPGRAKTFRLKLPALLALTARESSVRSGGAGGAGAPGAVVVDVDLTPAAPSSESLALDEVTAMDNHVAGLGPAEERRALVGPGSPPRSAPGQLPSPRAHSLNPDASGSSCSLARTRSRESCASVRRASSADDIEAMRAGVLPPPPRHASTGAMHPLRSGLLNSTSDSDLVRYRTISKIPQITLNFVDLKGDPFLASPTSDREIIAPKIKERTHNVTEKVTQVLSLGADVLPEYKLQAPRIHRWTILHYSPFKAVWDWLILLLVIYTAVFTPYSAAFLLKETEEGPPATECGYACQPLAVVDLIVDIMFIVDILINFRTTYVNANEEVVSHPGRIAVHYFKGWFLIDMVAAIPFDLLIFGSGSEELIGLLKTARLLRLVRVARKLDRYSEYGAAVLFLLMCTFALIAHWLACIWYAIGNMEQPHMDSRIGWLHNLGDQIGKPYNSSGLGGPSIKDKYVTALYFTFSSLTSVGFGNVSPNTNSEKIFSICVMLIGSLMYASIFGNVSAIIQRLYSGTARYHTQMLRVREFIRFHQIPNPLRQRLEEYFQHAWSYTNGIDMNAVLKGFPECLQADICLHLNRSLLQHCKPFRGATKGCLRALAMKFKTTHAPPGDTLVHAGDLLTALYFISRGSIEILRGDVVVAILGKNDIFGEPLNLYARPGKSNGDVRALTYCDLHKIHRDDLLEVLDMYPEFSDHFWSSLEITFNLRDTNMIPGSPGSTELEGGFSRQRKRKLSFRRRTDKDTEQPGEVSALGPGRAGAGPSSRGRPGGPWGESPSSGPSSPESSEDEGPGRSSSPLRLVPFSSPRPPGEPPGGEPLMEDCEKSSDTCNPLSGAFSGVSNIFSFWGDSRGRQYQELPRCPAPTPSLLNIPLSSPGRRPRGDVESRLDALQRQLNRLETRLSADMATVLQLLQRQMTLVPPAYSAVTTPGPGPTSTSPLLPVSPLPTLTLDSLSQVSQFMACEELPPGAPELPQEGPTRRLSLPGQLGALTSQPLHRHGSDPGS

Row | SMILES | hERG current change (%, negative = inhibition) at 10uM [%]
1 | Cc1ccccc1C(=O)/C=C1/SCC(=O)N1C | 15.4
2 | Cc1cccc(C(=O)NNC(=O)c2ccco2)c1 | 16.2
3 | O=C(NNC(=O)c1ccccc1Cl)c1ccco1 | 3.95
4 | CCN(Cc1ccccc1)C(=O)CSc1nc(C)cc(C)c1C#N | -26.1
5 | CC1(C(=O)O)CCC(C(=O)NC2CCCCCC2)C1(C)C (stereo not shown) | -0.798
6 | CN1CCc2nc(SCC(=O)Nc3ccc(OC(F)(F)F)cc3)c(C#N)c(-c3cccs3)c2C1 | -12.8
7 | CCN(CC)c1ccc(/C=N/N2C(=O)c3ccccc3C2=O)c(O)c1 | -10.6
8 | Cc1ccc(C2=Nc3ccccc3SC(c3cccc([N+](=O)[O-])c3)C2)cc1 (stereo not shown) | 19.8
9 | COc1ccccc1Nc1nc2nonc2nc1N1CCC(C)CC1 | 7.23
10 | O=C(NCC(c1cccnc1)N1CCN(c2ccc(F)cc2)CC1)Oc1ccccc1 (stereo not shown) | -26.4
11 | CC(OC(=O)Cc1c[nH]c2ccccc12)C(=O)c1ccccc1 (stereo not shown) | -7.25
12 | COc1ccc(-c2[nH]c(-c3ccc(C)cc3)nc2SCC(=O)Nc2nccs2)cc1 | 26.3
13 | COCCCNC(=O)c1ccc2nc(Cc3ccc(OC)cc3)oc2c1 | 12
14 | Cn1c(C(=O)N[C@@H](Cc2ccccc2)C(=O)O)cc2cc(Cl)ccc21 | 20.5
15 | Cc1nn(CCc2nn[nH]n2)c2nc(-c3ccc(Br)cc3)cc(C(F)(F)F)c12 | 39.8
16 | Cc1ccc(S(=O)(=O)NCC(c2ccco2)N2CCc3ccccc3C2)cc1 (stereo not shown) | -2.97
17 | O=C(N=NC(=O)c1ccc2c(O)n(C3CCCCC3)c(O)c2c1)c1cccnc1 | 7.84
18 | N#Cc1c(-c2ccccc2)oc(=O)c2ccccc12 | 6.72
19 | Cc1ccc(S(=O)(=O)Nc2ccc(C(=O)NCc3ccccn3)cc2)cc1 | -7.17
20 | CC(=O)NC(Cc1ccccc1)C(=O)NC1CCN(c2ncccc2[N+](=O)[O-])CC1 (stereo not shown) | 17.2
21 | CCOc1cc(/C=C\c2[nH]c(=O)[nH]c(=O)c2[N+](=O)[O-])ccc1OC(C)CC (stereo not shown) | 4.84
22 | CCOC(=O)Cn1c(=O)oc2cc(S(=O)(=O)N3CCc4ccccc43)ccc21 | -2.03

Row | SMILES | hERG current change (%, negative = inhibition) at 10uM [%]
23 | Cc1cc(C(=O)NC2CCCc3c2cnn3-c2cc(F)cc(F)c2)nn1C (stereo not shown) | -2.15
24 | Cc1ccc(NC(=O)COC(=O)c2cc(Cl)cc(Cl)c2)c(Br)c1 | -3.47
25 | O=c1c2[nH]c3cccc(Cl)c3c2ncn1Cc1ccncc1 | -13.6
26 | CN(CC(=O)NCc1ccccn1)S(=O)(=O)c1ccc(Br)cc1 | -3.43
27 | CN(C)c1ccnc2sc3c(=O)n(-c4ccccc4)cnc3c12 | -17.9
28 | CCOc1ccc(NC(=O)C2CC(=O)N3CCCN=C3S2)cc1 (stereo not shown) | 8.89
29 | COc1ccc2c(c1)SC(C)CC2=O (stereo not shown) | 6.88
30 | CCCCCOc1cccc(C2C(C(=O)c3cccs3)=C(O)C(=O)N2CCN2CCOCC2)c1 (stereo not shown) | 6.36
31 | Cc1cc(C(N)=O)nn1-c1c(Cl)cc(Cl)cc1Cl | 5.66
32 | CCOC(=O)c1c(C)[nH]c(O)c1C=Nc1ccc(Cl)cc1 | 13.6
33 | Cc1c(C)c2c(OCC(=O)Nc3cccnc3)cc3c(c2oc1=O)CCC(C)(C)O3 | 12
34 | O=C(c1cc2cc(Cl)ccc2[nH]1)N1CCN(c2ccccc2F)CC1 | 21.9
35 | COc1ccc(CC(=O)NC2CC(C)(C)NC(C)(C)C2)cc1 | 18.2
36 | COCCCN(C(=S)Nc1ccc(OC)cc1)C(C)c1ccncc1 (stereo not shown) | -18.5
37 | CCc1ccc(OCc2nnc(-c3ccccc3Br)o2)cc1 | 0.413
38 | CN(CC(=O)Nc1ccc(Cl)c(C(F)(F)F)c1)C(=O)/C=C/c1ccco1 | 5.99
39 | O=C(CSc1nnc(SCc2ccc(Cl)cc2)s1)c1ccc2c(c1)OCO2 | 9.81
40 | COc1ccccc1CNC(=O)c1ccc2nc3[nH]c4ccccc4c3nc2c1 | -17.2
41 | O=S(=O)(/C=C/c1ccccc1)N1CCN(c2nc(-c3cccnc3)nc3ccccc23)CC1 | -23.6
42 | O=S(=O)(c1ccc(Cl)cc1)N1CCC(O)(CN2CCN(Cc3ccccc3)CC2)CC1 | -75.8
43 | CC1=CN2C(=NC(=O)CC2(C)C(=O)N(CC(=O)NC2CCCC2)c2cc(C)cc(C)c2)C=C1 (stereo not shown) | 35.6

Reference: publication PMC4336329 (PLoS ONE, 2015)
